Assay in all cases: Primary Screen for Target Class Profiling of Small Molecule Inhibitors of Methyltransferases
The target in test [1] is Glycine N-methyltransferase (Homo sapiens) (UniProt Q14749). The settings on record: purified enzyme, MTase-Glo SAH luminescence; measured here: GNMT inhibition; at 40 µM; stronger effect = lower value. The essentials:
(§1)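 Each enzyme was reacted with SAM and its substrate, with compounds tested once at 40 uM; SAH formed was read by MTase-Glo luminescence.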

In test [2] the target is Guanidinoacetate N-methyltransferase (Homo sapiens) (UniProt Q14353). The settings on record: purified enzyme, MTase-Glo SAH luminescence; measured here: GAMT inhibition; at 40 µM; stronger effect = lower value. A digest of the protocol:
as §1

For test [3], the target named is Histamine N-methyltransferase (Homo sapiens) (UniProt P50135). As to conditions: purified enzyme, MTase-Glo SAH luminescence; measured here: HNMT inhibition; at 40 µM; stronger effect = lower value. A digest of the protocol: as §1
The target of test [4] is Nicotinamide N-methyltransferase (Homo sapiens) (UniProt P40261). The settings on record: purified enzyme, MTase-Glo SAH luminescence; measured here: NNMT inhibition; at 40 µM; stronger effect = lower value. A digest of the protocol: as §1
The target of test [5] is Phenylethanolamine N-methyltransferase (Homo sapiens) (UniProt P11086). The settings on record: purified enzyme, MTase-Glo SAH luminescence; measured here: PNMT inhibition; at 40 µM; stronger effect = lower value. The essentials:
as §1

The other results are listed elsewhere or left out. Further columns of the screen follow, without active or inactive calls.
% is set by controls: 0 for no effect and ±100 for the full control effect.

As for `CCOc1ccc(C2c3cccn3-c3sc4c(c3CN2C(=O)Nc2ccc(C(=O)OC)cc2)CCCC4)cc1` (stereo not given), the activity change, negative = inhibition was 2.01% in test [1]; 2.67% in test [2]; 3.79% in test [3]; 1.88% in test [4]; 6.36% in test [5].

Consider `CC1OC(OC2C(O)COC(O[C@@H]3[C@@H](O)[C@@H](O)[C@H](OC4C(OC(=O)[C@]56CCC(C)(C)CC5C5=CCC7[C@@]8(C)C[C@H](O)[C@H](OC9OC(CO)C(O)C(O)C9O)[C@@](C)(CO)C8[C@H](O)C[C@@]7(C)[C@]5(C)CC6)OCC(O)C4O)O[C@H]3C)C2O)C(O)C(O)C1O` (stereo not given in full), for which the activity change, negative = inhibition in test [1] is -0.124%; in test [2], -0.216%; in test [3], 5.41%; in test [4] it was -9.63%; in test [5], -6.1%.

On to `COc1ccc([C@@H]2CN(c3nnnn3-c3ccccc3)C[C@H]2NC(C)=O)cc1`, for which the activity change, negative = inhibition in test [1] is 0.215%; in test [2] it was 2.28%; in test [3], 1.16%; in test [4], -10.1%; in test [5] it was 13.9%.

`CC1(C(=O)NC2CCCCCC2)Cn2c(cc3occc32)C(=O)N1Cc1cccnc1` (stereo not given): the activity change, negative = inhibition was found to be 1.9% in test [1]; 0% in test [2]; 7.16% in test [3]; 3.57% in test [4]; 3.56% in test [5].

Consider `COc1cc(Nc2nc3ccccc3nc2NS(=O)(=O)c2cccc(NC(=O)c3ccc(C)c(OC)c3)c2)cc(OC)c1`, for which the activity change, negative = inhibition in test [1] is -4.89%; in test [2], -16.9%; in test [3], -1.35%; in test [4] it was -45.5%; in test [5] it was -12.6%.

Consider `CCCSCCCN1C(=O)c2cc3sccc3n2CC1(C)C(=O)NC1CCCCC1` (stereo not given), for which the activity change, negative = inhibition in test [1] is 0.187%; in test [2], 5.15%; in test [3], -0.116%; in test [4], 1.5%; in test [5], -0.055%.

As to `COc1cc2c(cc1OC)CN(CCc1ccc(NC(=O)c3cc(OC)c(OC)cc3NC(=O)c3cnc4ccccc4c3)cc1)CC2`, the activity change, negative = inhibition in test [1] is -16.3%; in test [2], -3.61%; in test [3] it was -12.2%; in test [4], -13.5%; in test [5], 0.039%.

On to `COC(=O)c1cc2n(n1)CC(C)(C(=O)NC1CCC(C)CC1)N(c1cc(C)ccc1C)C2=O` (stereo not given), for which the activity change, negative = inhibition in test [1] was -2.36%; in test [2], 6.31%; in test [3], -2.83%; in test [4], 4.98%; in test [5], 2.26%.

As for `O=C(CCn1ccc2cc(S(=O)(=O)N3CCCCC3)ccc21)N1CCN(C(=O)c2ccco2)CC1`, the activity change, negative = inhibition in test [1] is 1.18%; in test [2] it was 1.3%; in test [3], 1.79%; in test [4], -2.37%; in test [5], -1.4%.

Consider `C/C1=C\CC[C@H](C)CCO[C@@H]2O[C@H](CO[C@@H]3OC[C@](O)(COC1=O)[C@H]3O)[C@@H](O)[C@H](O)[C@H]2O`, for which the activity change, negative = inhibition is 5.13% in test [1]; 2.69% in test [2]; 9.55% in test [3]; -7.25% in test [4]; 2.03% in test [5].

For the compound `COc1ccc(CCN2C(=O)c3cc4ccccc4n3CC2(C)C(=O)NCc2ccccc2)cc1OC` (stereo not given), the activity change, negative = inhibition in test [1] was -2.59%; in test [2] it was -0.286%; in test [3], 0.914%; in test [4] it was -7.35%; in test [5] it was -2.48%.

In the case of `COc1cccc(NC(=O)CSc2nnc3[nH]c(=O)c(C(C)(C)C)nn23)c1`, the activity change, negative = inhibition in test [1] was -0.358%; in test [2] it was 6.61%; in test [3], -3.66%; in test [4], -7.02%; in test [5], -6.46%.

`CN(C(=O)c1ccc(F)cc1C(F)(F)F)C1CCN(c2nnc(-c3ccnn3C)c3ccccc23)CC1`: the activity change, negative = inhibition in test [1] was -7.95%; in test [2], 3.67%; in test [3], 7.13%; in test [4], -23.8%; in test [5] it was -1.4%.

Regarding `Cc1ccc(NC(=O)C2N(C(C)C)C(=O)C23CCCCC3)cc1` (stereo not given), the activity change, negative = inhibition in test [1] was -3.85%; in test [2], -3.93%; in test [3], -0.902%; in test [4], -4.56%; in test [5], -4.19%.

For the compound `CC(C)CCNC(=O)C1c2c(n(C)c3ccccc23)SCC(=O)N1CCC(C)C` (stereo not given), the activity change, negative = inhibition in test [1] was 6.91%; in test [2], 3.88%; in test [3], -0.189%; in test [4], -8.97%; in test [5], 0.521%.

As to `O=C(CCn1ccc2cc(S(=O)(=O)N3CCCC3)ccc21)NC1CCCCC1`, the activity change, negative = inhibition in test [1] was found to be 7.06%; in test [2] it was 0%; in test [3], 8.5%; in test [4] it was 12.7%; in test [5], 6.63%.

Consider `CC1(C)CC[C@]2(C(=O)O)CC[C@]3(C)C(=CCC4[C@@]5(C)CC[C@H](O[C@@H]6O[C@H](C(=O)O)[C@@H](O)[C@H](O)[C@H]6O)C(C)(C)C5CC[C@]43C)C2C1` (stereo not given in full), for which the activity change, negative = inhibition in test [1] is 2.44%; in test [2], -0.468%; in test [3] it was 5.29%; in test [4], -13.5%; in test [5] it was -4.83%.

Consider `CN1C(=O)c2cc(C(=O)NCc3ccccc3Br)nn2CC1(C)C(=O)NC1CCCC1` (stereo not given), for which the activity change, negative = inhibition in test [1] is 3.25%; in test [2] it was 5.09%; in test [3], -3.13%; in test [4] it was 3.39%; in test [5], -1.03%.

Take `O=C(Cn1c(=O)n2nc(-c3ccc(F)cc3)nc2c2ccccc21)N1CCN(c2ccc(F)cc2)CC1`: the activity change, negative = inhibition in test [1] worked out at 15.2%; in test [2], 0%; in test [3], 11.8%; in test [4], 9.69%; in test [5], 7.56%.

On to `Cc1noc([C@@H]2CN(Cc3ccc[nH]3)C[C@H]2CO)n1`, for which the activity change, negative = inhibition in test [1] is -17.9%; in test [2], -9.3%; in test [3] it was -2.99%; in test [4] it was -4.53%; in test [5], -11.1%.

`Cc1ccc(C(=O)N2CCC(C(=O)N3CCCCCCNC(=O)CC3)CC2)s1`: the activity change, negative = inhibition was -3.87% in test [1]; -9.3% in test [2]; -3.82% in test [3]; -11.9% in test [4]; -6.99% in test [5].

For `O=C1CN([S+](=O)([O-])c2ccc(F)cc2)CC(O)CN1Cc1cccs1` (stereo not given), the activity change, negative = inhibition in test [1] was -3.1%; in test [2], -0.555%; in test [3] it was -1.05%; in test [4] it was -10.4%; in test [5], -6.51%.

As to `CC1(C(=O)NC2CCCCC2)Cn2c(cc3occc32)C(=O)N1CCCc1ccccc1` (stereo not given), the activity change, negative = inhibition was -13.8% in test [1]; 1.58% in test [2]; -5.41% in test [3]; -11.8% in test [4]; -9.05% in test [5].

For the compound `NC(=O)C(=O)O`, the activity change, negative = inhibition was 4.28% in test [1]; 10.2% in test [2]; 4.58% in test [3]; -3.63% in test [4]; 2.64% in test [5].

In the case of `COc1cc(Cc2cnc(N)nc2N)cc(OC)c1OC`, the activity change, negative = inhibition in test [1] was -12.4%; in test [2], -2.65%; in test [3] it was -3.53%; in test [4], -12.9%; in test [5], -2.98%.

Turning to `CC1CCC(N2C(=O)c3cc4sccc4n3CC2(C)C(=O)NC2CCCCC2)CC1` (stereo not given), the activity change, negative = inhibition in test [1] is -0.878%; in test [2] it was 5.54%; in test [3], 0.56%; in test [4] it was 1.84%; in test [5] it was -2.35%.

For the compound `CC(=O)N1CC2(CCCN(C3CCCCC3)C2)Cc2ccccc21` (stereo not given), the activity change, negative = inhibition in test [1] is -0.915%; in test [2], -1.54%; in test [3], -6.95%; in test [4], -3.92%; in test [5] it was -1.43%.

As to `COc1cccc(Cn2nc3n(CC(C)C)c(=O)c4ccc(C(=O)NC5CCCC5)cc4n3c2=O)c1`, the activity change, negative = inhibition was 4.5% in test [1]; 2.1% in test [2]; 7.19% in test [3]; 7.22% in test [4]; 3.81% in test [5].

Turning to `CC1=CC(=O)CC(C)(CO[C@@H]2O[C@H](CO)[C@@H](O)[C@H](O)[C@H]2O)C1(O)/C=C/C(C)=C/C(=O)O` (stereo not given in full), the activity change, negative = inhibition in test [1] is 3.19%; in test [2], 6.48%; in test [3], 10.4%; in test [4], -22.2%; in test [5] it was 8.98%.

The values are drawn from PubChem BioAssay AID1745853 (National Center for Advancing Translational Sciences (NCATS), 2022).
